For this test, the system named is Wistar rats. Nature of the test: intravenous cocaine self-administration, short. The settings on record: ShA rats, 1 h session; 20 and 40 mg/kg i.p., 60 min pretreatment, vs vehicle.

Take `Cc1c(OCc2cccc(-c3ccc(C(=O)[O-])cc3)c2)cc2c(c1C)C(=O)C(C1CCCC1)C2.[K+]` (stereo not shown) [BINA, potassium 3′-([2-cyclopentyl-6-7-dimethyl-1-oxo-2,3-dihydro-1H-inden-5yloxy]methyl)biphenyll-4-carboxylate]: the “cocaine self-administration (infusions earned, % of baseline)” value is “significant decrease in cocaine intake”.

For the origin of these results see publication PMC2922422 (Neuropsychopharmacology : official publication of the …, 2010).
